Measured values published in the supplement of paper PMC10338343.
± gives the standard deviation. In all, about 5,500 sequences were measured (“pre-steady-state target cleavage rate”: median about 0.1, highest 2% from about 0.64 on). Only a part is listed here, and it is no random draw.

Test system: MIWI (PIWIL1) piRISC loaded with piRNA #2 (30 nt)
Test: pre-steady-state target cleavage rate (min^-1); MIWI and MILI are mouse PIWI proteins and EfPiwi is from a freshwater sponge; tags in brackets are library labels; higher = faster piRNA-guided slicing of the target
Conditions: guide: piRNA #2 5'p-UUAGGUAACCCAGUAGAUCCAGAGGAAUUC; auxiliary factor: 500 nM mouse GTSF1
Procedure, shortened: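 For Cleave-'n-Seq, a transcribed, DNA-blocked target RNA library […] met 1 nM active affinity-purified piRISC with one synthetic guide at 33 °C for 0–8 or 0–960 min in HEPES–potassium acetate buffer, with or without 500 nM GTSF1 partner protein. Uncleaved targets were sequenced and normalised to depth and weakly complementary targets, with three trials pooled and k3 capped at 0.0001 min^-1. A burst-and-steady-state fit supplied the pre-steady-state cleavage rate.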

Sequence	pre-steady-state target cleavage rate
CUUAACCUCUUGGAUCUACUGGGUUACCUAA	0.23 ± 0.022
CUUAAGCUCUGCAUCUACUGGGUUUCCUAA	0.069 ± 0.017
CUUAUCCUCUUGGAUCUACUGGGUUACCUAA	0.331 ± 0.036
CUAUUCCAGUGGAUCUACUGGGUUACCUAA	0.556 ± 0.05
CAAUUCCUCUGGACCUACUGGGUUACCUAA	0.213 ± 0.032
CUUAACCUCCUGGAUCUACUGGGUUACCUAA	0.275 ± 0.028
GUAUUCCUCUGGAUCUACUGGGAUACCUAA	0.0903 ± 0.026
CUUAAGGUCUCGAUCUUCUGGGUUACCUAA	0.0684 ± 0.01
CUAUUCCUCUGGAACUAGUGGGUUACCUAA	0.259 ± 0.033
CUGUUCCUCUGGAUCUACUGGGUUACCUAA	0.0633 ± 0.028
GAAUUCCUCUGCAUCUACUGGGAUACCUAA	0.233 ± 0.029
CUUAACCUCUGGAUCUACACCGUUACCUAA	0.0655 ± 0.0085
CUUUACCUCUCGAUCUACUGGGUUACCUAA	0.47 ± 0.033
CUUAACCUCUGGAUCUUCUGGGUUACGUAA	0.316 ± 0.039
CUUAAGCUCUGGAUCAACUGGGUUAGCUAA	0.0953 ± 0.019
CUUUUCCUCUGGAUCUACUGCGUUACCUUA	0.331 ± 0.038
GAAUUCCUCUGGAUCUACUGGGUUACAUAA	0.64 ± 0.057
CUUAACCUCUGGAUCUACUGGGUUACCAUA	0.274 ± 0.038
CUUAAGGUCUGGAUCUACUGGCUUACCUUA	0.0232 ± 0.0079
CUUAUCCUCUGGUUCUACUGCGUUACCUAA	0.455 ± 0.04
CUUUUCCUCUGGAUCGUACUGGGUUACCUAA	0.00562 ± 0.0048
CUUAUCCUCAGGAUCUUCUGGGUUACCUAA	0.279 ± 0.044
CUUAAGCUCUGGUUCUUCUGGGUUACCUAA	0.137 ± 0.011
CUUAAGGAGUGGAUCUACUGGGUUAUCCUAA	0.0611 ± 0.016
GAAUUCCUCUGGAUCUACUGGGUUCACCUAA	0.343 ± 0.064

Sequence	pre-steady-state target cleavage rate
CUUAAGCACUGGAUCUACAGGGUUACCUAA	0.138 ± 0.011
CUUAAGCUCUGCAUCUAGUGGGUUACCUAA	0.0982 ± 0.01
GAAUUCCUGUGGAUCAACUGGGUUACCUAA	0.4 ± 0.026
CUUAAGCUCUCGAUCUACUGGGUUACCUAA	0.272 ± 0.026
CUAAUCCUCUGGAUCUACUGGGUUUCCUAA	0.358 ± 0.063
CAAUUCCUUCUGGAUCUACUGGGUUACCUAA	0.525 ± 0.05
CUUAAGCACUGGAUCUACUGGGUUUCCUAA	0.193 ± 0.035
CUUUUGCUCUGGAUCUAGUGGGUUACCUAA	0.0614 ± 0.0085
GAAUUCCUCUGGAUCUAGUGGGUUACGUAA	0.164 ± 0.02
CUUUUCCUCUUGAUCUACUGGGUUACCUAA	0.705 ± 0.039
CUUAUCCUCUGGUAUCUACUGGGUUACCUAA	0.376 ± 0.049
CUUUUCCUCUGGUUCUACAGGGUUACCUAA	0.273 ± 0.029
GAAUUCCUCUGGAUCUACUGGUUUACCUAA	0.212 ± 0.025
CUUAAGCUCUGGAUCUACUGGGUUACCUAAA	0.0903 ± 0.016
CUUUUCCUCUGCAUCUACUGGCUUACCUAA	0.113 ± 0.011
CUUAAGGAGAGGUUCUACUGGGUUACCUAA	0.00782 ± 0.0025
CUAUUCCUCUGGAUCUACUGCGUUACCUUA	0.355 ± 0.061
CUUAACGUCUGGAUCUACUGGCUUACCUAA	0.0738 ± 0.014
CUAUUCCUCUGGAUCUUCAGGGUUACCUAA	0.186 ± 0.025
GAAUUCCUCUGGAUCUACUGGGUUAGGUAA	0.395 ± 0.095
CUAUUCCUCUGGAUCUAGUCGGUUACCUAA	0.00623 ± 0.0038
CUUUUCCAUCUGGAUCUACUGGGUUACCUAA	0.413 ± 0.042
CUUAACCUCUGGAUCUACUGGGUUCCCUAA	0.128 ± 0.021
CUUUUCCUCAGGAUCUACUGGGUUACCAAA	0.326 ± 0.055
CUUAAGGUCUGGAUCUUCUGGGUUUCCUAA	0.0215 ± 0.0063

Sequence	pre-steady-state target cleavage rate
CUUAAGGUCUGGUAGUACUGGGUUACCUAA	0.00771 ± 0.0077
CUUAACCUCUGGAUCUACUGGGUUACCUUA	0.176 ± 0.025
CUUAAGGAGUGGAUCUACUGGGGUACCUAA	0.017 ± 0.0046
CUUAAGCUCUGGAAGUACUGGGUUACCUAA	0.218 ± 0.02
CUUAACCUCUGGAUCUAGUGGGUUACGUAA	0.165 ± 0.019
CUUAAGCUCUGCAUCUACUGGGAUACCUAA	0.113 ± 0.016
CUUAAGCUCUGGAUCUACUGGGUAACCUAA	0.0515 ± 0.013
CUUAAGCUCUGGAUCUACUCGGUUACCAAA	0.0451 ± 0.016
CUUUUCCACUGGAUCUACUGGGUUUCCUAA	0.45 ± 0.055
CUUAAGGAGACCAUCUACUGAGUUACCUAA	0.00468 ± 0.0026
CUUAUCCAGAGGAUCUACUGGGUUACCUAA	0.0636 ± 0.011
CUUAAGCUGUGGAUCUACUGGGUUACCUAA	0.19 ± 0.043
CUUAAGGAGUGGUUCUACUGGGUUACGUAA	0.132 ± 0.025
CUUAUCCUCUGGAUCUACUGGCUUACCAAA	0.0983 ± 0.028
CUUAUCUCUGGAUCUACUGGGUUACCUAA	0.164 ± 0.026
CUUAAGGUCUGGAUCUGCUGGGUUACCUAA	0.272 ± 0.034
CUUAAACUCUGGAUCUACUGGGUUACCUAA	0.0774 ± 0.019
CAAUUUCCUCUGGAUCUACUGGGUUACCUAA	0.517 ± 0.064
CUUAAGCUCUGGAUCUACUGGGUUACUUAA	0.338 ± 0.031
CUUUUCCCUGGAUCUACUGGGUUACCUAA	0.408 ± 0.036
CUUUUGCUCUGGAUCAACUGGGUUACCUAA	0.144 ± 0.021
CUUAAGGAGUGGAUGUACUGCGUUACCUAA	0.0246 ± 0.014
GAUUUCCUCUGGAUCAACUGGGUUACCUAA	0.139 ± 0.032
